Source: patent US20200197485A1 (ONCOIMMUNE, published 2020)

Target: T1, Siglec-10Fc (human, UniProt Q96LC7 17-546)
T1 construct: not shown: Fc part of Siglec-10Fc
T1 sequence (looked up): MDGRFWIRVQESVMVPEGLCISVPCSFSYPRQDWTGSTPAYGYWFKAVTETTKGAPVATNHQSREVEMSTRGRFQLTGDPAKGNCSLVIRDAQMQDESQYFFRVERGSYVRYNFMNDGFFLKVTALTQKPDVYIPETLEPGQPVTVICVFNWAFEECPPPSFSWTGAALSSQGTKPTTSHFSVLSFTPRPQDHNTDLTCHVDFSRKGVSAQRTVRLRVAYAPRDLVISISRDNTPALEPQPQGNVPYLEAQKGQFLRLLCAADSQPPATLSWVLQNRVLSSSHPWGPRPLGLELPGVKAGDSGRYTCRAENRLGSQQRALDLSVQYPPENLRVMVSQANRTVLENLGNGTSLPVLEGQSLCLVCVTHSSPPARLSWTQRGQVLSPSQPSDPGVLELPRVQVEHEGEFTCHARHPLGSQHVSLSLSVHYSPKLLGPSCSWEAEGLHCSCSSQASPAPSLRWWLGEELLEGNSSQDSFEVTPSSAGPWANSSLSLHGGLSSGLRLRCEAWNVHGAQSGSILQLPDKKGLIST
Assay: Biacore (SPR): CD24Fc immobilized on the chip, Siglec-10Fc injected at different concentrations (0 to about 9x10-7 M). Steady-state response in RU plotted against Siglec 10 concentration.

Kd: 162 nM
B1: CD24Fc fusion protein (mature human CD24 lacking the final polymorphic amino acid, fused to human IgG1 Fc), processed version (Fc fusion)
chain: SETTTGTSSNSSQSTSNSGLAPNPTNATT[human IgG1 Fc skipped]
notes: also called CD24Ig; CD24IgG1
